Usually Ki stands for a dissociation constant, usually derived from enzyme kinetics or from competition with a known ligand.

In patent US7816326B2, “Sulfur compounds as inhibitors of hepatitis C virus NS3 serine protease” (Schering Corporation, priority 2004, dated 2010) one finds Ki data, which are given here for 31 compounds.

The assay deals with Recombinant heterodimeric HCV NS3/NS4A protease (strain 1a) (Hepatitis C virus genotype 1a, UniProt P27958). In words: Spectrophotometric assay for HCV protease inhibitory activity. The settings on record: HCV serine protease inhibitory activity ranges; read-out: Ki* Range. The assay is classed as biochemical. The text has this: The present invention relates to novel HCV protease inhibitors. This utility can be manifested in their ability to inhibit the HCV NS2/NS4a serine protease.
Assay for HCV Protease Inhibitory Activity:
Spectrophotometric Assay: Spectrophotometric assay for the HCV serine protease can be performed on the inventive compounds by following the procedure described by R. Zhang et al, Analytical Biochemistry, 270 (1999) 268-275, the disclosure of which is incorporated herein by reference. The assay based on the proteolysis of chromogenic ester substrates is suitable for the continuous monitoring of HCV NS3 protease activity. The substrates are derived from the P side of the NS5A-NS5B junction sequence (Ac-DTEDVVX(Nva), where X=A or P) whose C-terminal carboxyl groups are esterified with one of four different chromophoric alcohols (3- or 4-nitrophenol, 7-hydroxy-4-methyl-coumarin, or 4-phenylazophenol). Illustrated below are the synthesis, characterization and application of these novel spectrophotometric ester substrates to high throughput screening and detailed kinetic evaluation of HCV NS3 protease inhibitors. Materials and Methods: Materials: Chemical reagents for assay related buffers are obtained from Sigma Chemical Company (St. Louis, Mo.). Reagents for peptide synthesis were from Aldrich Chemicals, Novabiochem (San Diego, Calif.), Applied Biosystems (Foster City, Calif.) and Perseptive Biosystems (Framingham, Mass.). Peptides are synthesized manually or on an automated ABI model 431A synthesizer (from Applied Biosystems). UV/VIS Spectrometer model LAMBDA 12 was from Perkin Elmer (Norwalk, Conn.) and 96-well UV plates were obtained from Corning (Corning, N.Y.). The prewarming block can be from USA Scientific (Ocala, Fla.) and the 96-well plate vortexer is from Labline Instruments (Melrose Park, Ill.). A Spectramax Plus microtiter plate reader with monochrometer is obtained from Molecular Devices (Sunnyvale, Calif.). […] Protein concentrations are determined by the Biorad dye method using recombinant HCV protease standards previously quantified by amino acid analysis. Prior to assay initiation, the enzyme storage buffer (50 mM sodium phosphate pH 8.0, 300 mM NaCl, 10% glycerol, 0.05% lauryl maltoside and 10 mM DTT) is exchanged for the assay buffer (25 mM MOPS pH 6.5, 300 mM NaCl, 10% glycerol, 0.05% lauryl maltoside, 5 μM EDTA and 5 μM DTT) utilizing a Biorad Bio-Spin P-6 prepacked column. Substrate Synthesis and Purification: The synthesis of the substrates is done as reported by R. Zhang et al, (ibid.) and is initiated by anchoring Fmoc-Nva-OH to 2-chlorotrityl chloride resin using a standard protocol (K. Barlos et al, Int. J. Pept. Protein Res., 37 (1991), 513-520). The peptides are subsequently assembled, using Fmoc chemistry, either manually or on an automatic ABI model 431 peptide synthesizer. […] The combined filtrate and DCM wash is evaporated azeotropically (or repeatedly extracted by aqueous Na2CO3 solution) to remove the acid used in cleavage. The DCM phase is dried over Na2SO4 and evaporated.
The ester substrates are assembled using standard acid-alcohol coupling procedures (K. Holmber et al, Acta Chem. Scand., B33 (1979) 410-412). Peptide fragments are dissolved in anhydrous pyridine (30-60 mg/ml) to which 10 molar equivalents of chromophore and a catalytic amount (0.1 eq.) of para-toluenesulfonic acid (pTSA) were added. Dicyclohexylcarbodiimide (DCC, 3 eq.) is added to initiate the coupling reactions. Product formation is monitored by HPLC and can be found to be complete following 12-72 hour reaction at room temperature. Pyridine solvent is evaporated under vacuum and further removed by azeotropic evaporation with toluene.

Consider `CCCC[C@H](NC(=O)[C@@H]1[C@@H]2[C@H](CN1C(=O)[C@@H](NC(=O)NC1([C@H](C)S(=O)(=O)N(C)C)CCCCC1)C1(C)CCCCC1)C2(C)C)C(=O)C(=O)NC1CC1` [compound 1411], for which the Ki is below 0.075 µM.

As for `CCC[C@H](NC(=O)[C@@H]1[C@@H]2[C@H](CN1C(=O)[C@@H](NC(=O)NC1(CS(=O)(=O)N(CC)C(C)C)CCCCC1)C(C)(C)C)C2(C)C)C(=O)C(=O)NC1CC1` [compound 1302], the Ki is below 0.075 µM.

Consider `CCCC[C@H](NC(=O)[C@@H]1[C@@H]2[C@H](CN1C(=O)[C@@H](NC(=O)NC1([C@@H]3CCN(C)S3(=O)=O)CCCCC1)C(C)(C)C)C2(C)C)C(=O)C(=O)NC1CC1` [compound 1205], for which the inhibition constant (Ki) is below 0.075 µM.

Turning to `CCC[C@H](NC(=O)[C@@H]1[C@@H]2[C@H](CN1C(=O)[C@@H](NC(=O)NC1(CS(=O)(=O)N(CC)CC)CCCCC1)C1(C)CCCCC1)C2(C)C)C(=O)C(=O)NC1CC1` [compound 1266], the Ki is below 0.075 µM.

For `CN(C)S(=O)(=O)CC1(NC(=O)N[C@H](C(=O)N2C[C@H]3[C@@H]([C@H]2C(=O)N[C@@H](CC2CC2)C(=O)C(=O)NC2CC2)C3(C)C)C2CCCCC2)CCCCC1` [compound 1242], the inhibitory constant (Ki) was below 0.075 µM.

Regarding `CCC[C@H](NC(=O)[C@@H]1[C@@H]2[C@H](CN1C(=O)[C@@H](NC(=O)NC1(CS(=O)(=O)N(C)C3CCC3)CCCCC1)C1(C)CCCCC1)C2(C)C)C(=O)C(=O)NC1CC1` [compound 1388], the Ki is below 0.075 µM.

Take `CN(C1CC1)S(=O)(=O)CC1(NC(=O)N[C@H](C(=O)N2C[C@H]3[C@@H]([C@H]2C(=O)N[C@@H](CC2CC2)C(=O)C(=O)NC2CC2)C3(C)C)C(C)(C)C)CCCCC1` [compound 1321]: the Ki was below 0.075 µM.

On to `CCC[C@H](NC(=O)[C@@H]1[C@@H]2[C@H](CN1C(=O)[C@@H](NC(=O)NC1(CS(=O)(=O)N(C)CC3CC3)CCCCC1)C(C)(C)C)C2(C)C)C(=O)C(=O)NC1CC1` [compound 1280], for which the Ki was below 0.075 µM.

For `CCCC[C@H](NC(=O)[C@@H]1[C@@H]2[C@H](CN1C(=O)[C@@H](NC(=O)NC1(CS(=O)(=O)N(CC)C(C)(C)C)CCCCC1)C1(C)CCCCC1)C2(C)C)C(=O)C(=O)NC1CC1` [compound 1327], the Ki was below 0.075 µM.

For the compound `CCC[C@H](NC(=O)[C@@H]1[C@@H]2[C@H](CN1C(=O)[C@@H](NC(=O)NC1(CS(=O)(=O)N(CC)CC)CCCCC1)C1CCCCC1)C2(C)C)C(=O)C(=O)NC1CC1` [compound 1335], the inhibition constant Ki is below 0.075 µM.

For `CCC[C@H](NC(=O)[C@@H]1[C@@H]2[C@H](CN1C(=O)[C@@H](NC(=O)NC1([C@H](C)S(=O)(=O)N(C)C3CC3)CCCCC1)C(C)(C)C)C2(C)C)C(=O)C(=O)NC1CC1` [compound 1421], the Ki is below 0.075 µM.

For `CCC[C@H](NC(=O)[C@@H]1[C@@H]2[C@H](CN1C(=O)[C@@H](NC(=O)NC1(CS(=O)(=O)N(C)[C@H](C)C3CC3)CCCCC1)C(C)(C)C)C2(C)C)C(=O)C(=O)NC1CC1` [compound 1296], the Ki is below 0.075 µM.

On to `CCCC[C@H](NC(=O)[C@@H]1[C@@H]2[C@H](CN1C(=O)[C@@H](NC(=O)NC1(CS(=O)(=O)N(CC)C3CC3)CCCCC1)C(C)(C)C)C2(C)C)C(=O)C(=O)NC1CC1` [compound 1281], for which the Ki was below 0.075 µM.

Regarding `CCCC[C@H](NC(=O)[C@@H]1[C@@H]2[C@H](CN1C(=O)[C@@H](NC(=O)NC1(CS(=O)(=O)N(C)C3CCC3)CCCCC1)C1(C)CCCCC1)C2(C)C)C(=O)C(=O)NC1CC1` [compound 1390], the inhibition constant Ki was below 0.075 µM.

Regarding `CCCC[C@H](NC(=O)[C@@H]1[C@@H]2[C@H](CN1C(=O)[C@@H](NC(=O)NC1(CS(=O)(=O)N3CCC3)CCCCC1)C(C)(C)C)C2(C)C)C(=O)C(=O)NC1CC1` [compound 1339], the inhibition constant (Ki) was below 0.075 µM.

With `CCC[C@H](NC(=O)[C@@H]1[C@@H]2[C@H](CN1C(=O)[C@@H](NC(=O)NC1([C@H]3CCN(C)S3(=O)=O)CCCCC1)C(C)(C)C)C2(C)C)C(=O)C(=O)NC1CC1` [compound 1202], the Ki was below 0.075 µM.

Turning to `CCCC[C@H](NC(=O)[C@@H]1[C@@H]2[C@H](CN1C(=O)[C@@H](NC(=O)NC1(CS(=O)(=O)N3CCOCC3)CCCCC1)C1(C)CCCCC1)C2(C)C)C(=O)C(=O)NC1CC1` [compound 1370], the Ki was below 0.075 µM.

On to `CCN(C)S(=O)(=O)CC1(NC(=O)N[C@H](C(=O)N2C[C@H]3[C@@H]([C@H]2C(=O)N[C@@H](CC2CC2)C(=O)C(=O)NC2CC2)C3(C)C)C(C)(C)C)CCCCC1` [compound 1285], for which the Ki is below 0.075 µM.

`CCCC[C@H](NC(=O)[C@@H]1[C@@H]2[C@H](CN1C(=O)[C@@H](NC(=O)N[C@H]([C@H]1CCN(C)S1(=O)=O)C(C)(C)C)C(C)(C)C)C2(C)C)C(=O)C(=O)NC1CC1` [compound 1226]: the Ki was above 0.25 µM.

`CCCC[C@H](NC(=O)[C@@H]1[C@@H]2[C@H](CN1C(=O)[C@@H](NC(=O)NC1(CS(=O)(=O)N(CC)CC)CCCCC1)C1CCCCC1)C2(C)C)C(=O)C(=O)NC1CC1` [compound 1333]: the Ki is below 0.075 µM.

Consider `CCCC[C@H](NC(=O)[C@@H]1[C@@H]2[C@H](CN1C(=O)[C@@H](NC(=O)NC1([C@@H]3CCN(CC)S3(=O)=O)CCCCC1)C(C)(C)C)C2(C)C)C(=O)C(=O)NC1CC1` [compound 1207], for which the inhibition constant (Ki) is below 0.075 µM.

Regarding `CC(C)N(C)S(=O)(=O)CC1(NC(=O)N[C@H](C(=O)N2C[C@H]3[C@@H]([C@H]2C(=O)N[C@@H](CC2CC2)C(=O)C(=O)NC2CC2)C3(C)C)C(C)(C)C)CCCCC1` [compound 1328], the Ki was below 0.075 µM.

On to `C#CCC[C@H](NC(=O)[C@@H]1[C@@H]2[C@H](CN1C(=O)[C@@H](NC(=O)NC1(CS(=O)(=O)N(C)C)CCCCC1)C(C)(C)C)C2(C)C)C(=O)C(=O)NC1CC1` [compound 1234], for which the Ki is below 0.075 µM.

For the compound `CC(C)(C)[C@H](NC(=O)NC1(CS(=O)(=O)N2CCOCC2)CCCCC1)C(=O)N1C[C@H]2[C@@H]([C@H]1C(=O)N[C@@H](CC1CC1)C(=O)C(=O)NC1CC1)C2(C)C` [compound 1387], the Ki was below 0.075 µM.

Regarding `CCCC[C@H](NC(=O)[C@@H]1[C@@H]2[C@H](CN1C(=O)[C@@H](NC(=O)NC1(CS(=O)(=O)N(C)C3CC3)CCCCC1)C1(C)CCCCC1)C2(C)C)C(=O)C(=O)NC1CC1` [compound 1268], the Ki was below 0.075 µM.

For `CCC[C@H](NC(=O)[C@@H]1[C@@H]2[C@H](CN1C(=O)[C@@H](NC(=O)NC1(CS(=O)(=O)N3CCC3)CCCCC1)C(C)(C)C)C2(C)C)C(=O)C(=O)NC1CC1` [compound 1341], the Ki was below 0.075 µM.

With `CCCC[C@H](NC(=O)[C@@H]1[C@@H]2[C@H](CN1C(=O)[C@@H](NC(=O)NC1(CS(=O)(=O)N(C)OC)CCCCC1)C1(C)CCCCC1)C2(C)C)C(=O)C(=O)NC1CC1` [compound 1231], the Ki is below 0.075 µM.

With `CC(C)N(C1CC1)S(=O)(=O)CC1(NC(=O)N[C@H](C(=O)N2C[C@H]3[C@@H]([C@H]2C(=O)N[C@@H](CCC2CC2)C(=O)C(=O)NC2CC2)C3(C)C)C(C)(C)C)CCCCC1` [compound 1330], the Ki was below 0.075 µM.

Regarding `CN(C1CCC1)S(=O)(=O)CC1(NC(=O)N[C@H](C(=O)N2C[C@H]3[C@@H]([C@H]2C(=O)N[C@@H](CC2CC2)C(=O)C(=O)NC2CC2)C3(C)C)C(C)(C)C)CCCCC1` [compound 1381], the Ki was below 0.075 µM.

Consider `CCC[C@H](NC(=O)[C@@H]1[C@@H]2[C@H](CN1C(=O)[C@@H](NC(=O)NC1(CS(=O)(=O)N(CC)C(C)C)CCCCC1)C1(C)CCCCC1)C2(C)C)C(=O)C(=O)NC1CC1` [compound 1305], for which the Ki is below 0.075 µM.

Take `CC1([C@H](NC(=O)NC2(CS(=O)(=O)N3CCOCC3)CCCCC2)C(=O)N2C[C@H]3[C@@H]([C@H]2C(=O)N[C@@H](CCC2CC2)C(=O)C(=O)NC2CC2)C3(C)C)CCCCC1` [compound 1371]: the Ki is below 0.075 µM.
